In this assay the target is T1, Serine/threonine-protein kinase Chk1 (Homo sapiens, UniProt O14757).
T1 sequence (O14757 whole entry): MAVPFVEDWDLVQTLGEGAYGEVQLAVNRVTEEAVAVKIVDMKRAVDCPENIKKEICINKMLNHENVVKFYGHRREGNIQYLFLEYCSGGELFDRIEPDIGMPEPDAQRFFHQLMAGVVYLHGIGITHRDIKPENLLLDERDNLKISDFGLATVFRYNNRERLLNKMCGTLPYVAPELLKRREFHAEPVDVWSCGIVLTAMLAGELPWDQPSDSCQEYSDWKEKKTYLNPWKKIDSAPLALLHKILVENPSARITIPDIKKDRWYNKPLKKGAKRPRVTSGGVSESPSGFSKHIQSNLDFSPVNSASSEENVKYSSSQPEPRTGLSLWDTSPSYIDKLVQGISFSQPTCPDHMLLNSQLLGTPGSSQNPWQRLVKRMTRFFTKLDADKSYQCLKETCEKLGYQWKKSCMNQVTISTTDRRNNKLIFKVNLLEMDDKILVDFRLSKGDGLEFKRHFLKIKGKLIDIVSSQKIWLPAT

As a reminder, the IC50 is the concentration that gives 50% inhibition. A low value points to inhibition by little substance. `CN(C)CCCCc1cc2c(cc1O)c1c3c(c(-c4ccccc4Cl)cc1n2C)C(=O)NC3=O` showed a 50% inhibitory concentration (IC50) of 102 nM. In the case of `O=C1NC(=O)c2c1c(-c1ccccc1Cl)cc1c2c2cc(O)c(CCCCN3CCCC3)cc2n1CCO` it was 14 nM. In the case of `O=C1NC(=O)c2c1c(-c1ccccc1Cl)cc1[nH]c3cc(OCCCN4CCOCC4)c(O)cc3c21` it was 41 nM.

The compound `Cn1c2cc(S(=O)(=O)CCCN3CCCC3)c(O)cc2c2c3c(c(-c4ccccc4Cl)cc21)C(=O)NC3=O` displayed an IC50 of 240 nM. Compound `O=C1NC(=O)c2c1c(-c1ccccc1Cl)cc1c2c2cc(O)c(CCCCN3CCOCC3)cc2n1CCO` came in with an IC50 of 22 nM. For the compound `O=C1NC(=O)c2c1c(-c1ccccc1Cl)cc1c2c2cc(O)c(OCCCN3CCCC3)cc2n1CCO`, the IC50 is 63 nM.

The compound `O=C1NC(=O)c2c1c(-c1ccccc1Cl)cc1[nH]c3cc(OCCCN4CCCC4)c(O)cc3c21` gave an IC50 of 10 nM. Compared with the last compound, the IC50 is about 6.3-fold lower.

In turn, `Cn1c2cc(CCCCN3CCCC3)c(O)cc2c2c3c(c(-c4ccccc4Cl)cc21)C(=O)NC3=O` yielded an IC50 of 4 nM. In the case of `O=C1NC(=O)c2c1c(-c1ccccc1Cl)cc1c2c2cc(O)c(OCCCN3CCOCC3)cc2n1CCO` it was 290 nM. Compound `Cn1c2cc(C(=O)NCCN3CCCC3)c(O)cc2c2c3c(c(-c4ccccc4Cl)cc21)C(=O)NC3=O` came in with an IC50 of 242 nM. For `Cn1c2cc(OCCCN3CCOCC3)c(O)cc2c2c3c(c(-c4ccccc4Cl)cc21)C(=O)NC3=O` the value was 374 nM; for `CN(C)CCCOc1cc2[nH]c3cc(-c4ccccc4Cl)c4c(c3c2cc1O)C(=O)NC4=O`, 3 nM. Compound `O=C1NC(=O)c2c1c(-c1ccccc1Cl)cc1[nH]c3cc(CCCCN4CCCC4)c(O)cc3c21` showed an IC50 of 22 nM. In the case of `CN(C)CCCCc1cc2[nH]c3cc(-c4ccccc4Cl)c4c(c3c2cc1O)C(=O)NC4=O` it was 55 nM. For `CN(C)CCCOc1cc2c(cc1O)c1c3c(c(-c4ccccc4Cl)cc1n2CCO)C(=O)NC3=O` the value was 134 nM; for `Cn1c2cc(S(=O)(=O)NCCN3CCCC3)c(O)cc2c2c3c(c(-c4ccccc4Cl)cc21)C(=O)NC3=O`, 57 nM. Regarding `O=C1NC(=O)c2c1c(-c1ccccc1Cl)cc1[nH]c3cc(CCCCN4CCOCC4)c(O)cc3c21`, the IC50 is 71 nM.

Compound `Cn1c2cc(SCCCN3CCCC3)c(O)cc2c2c3c(c(-c4ccccc4Cl)cc21)C(=O)NC3=O` came in with a concentration for half-maximal inhibition (IC50) of 44 nM. This IC50 is about 1.6-fold lower than that of the compound before. For `Cn1c2cc(CCCCN3CCOCC3)c(O)cc2c2c3c(c(-c4ccccc4Cl)cc21)C(=O)NC3=O` the value was 74 nM.
